# The supplement of paper PMC4604168 (melanoma cell lines)
# Some of the results follow. Many values rest on one well or one pass, so single values are uncertain.
# Test system: WM3619
# Test: cell count relative to DMSO control; melanoma cells; higher = more viable cells
# Conditions: library dose: low library concentration; 72 h
# 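Note: cell number obtained by counting DAPI-stained nuclei in high-throughput microscope images with image analysis software, screen run in 1,536-well plates.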
row,Structure (SMILES),cell count
1,"CN1CCN(c2ccc3nc(-c4c(N)c5c(F)cccc5[nH]c4=O)[nH]c3c2)CC1 [Dovitinib] + Nc1nc(F)nc2c1ncn2[C@@H]1O[C@H](CO)[C@@H](O)[C@@H]1O [fludarabine] (first compound 0.1 µM, partner dose 0.2 µM)",86.7%
2,"CS(=O)(=O)CCNCc1ccc(-c2ccc3ncnc(Nc4ccc(OCc5cccc(F)c5)c(Cl)c4)c3c2)o1 [lapatinib] + O=S(=O)(c1ccccc1)N(CC(F)(F)F)c1ccc(C(O)(C(F)(F)F)C(F)(F)F)cc1 [T0901317] (first compound 0.8 µM, partner dose 1.4 µM)",89.7%
3,"CN1CCN(c2ccc3nc(-c4c(N)c5c(F)cccc5[nH]c4=O)[nH]c3c2)CC1 [Dovitinib] + O=C(CCCCCCC(=O)Nc1ccccc1)NO [vorinostat] (first compound 0.1 µM, partner dose 0.08 µM)",114%
4,"C[C@@H](Oc1cc(-c2cnn(C3CCNCC3)c2)cnc1N)c1c(Cl)ccc(F)c1Cl [Crizotinib] + Cn1cc(/C=C2\C(=O)Nc3cccnc32)c2ccccc21 [GW441756] (first compound 0.2 µM, partner dose 0.4 µM)",116%
5,"CN1CCN(c2ccc3nc(-c4c(N)c5c(F)cccc5[nH]c4=O)[nH]c3c2)CC1 [Dovitinib] + Cc1cc(N2CCOCC2)cc2[nH]c(-c3c(NC[C@@H](O)c4cccc(Cl)c4)cc[nH]c3=O)nc12 [BMS536924] (first compound 0.1 µM, partner dose 0.2 µM)",71.8%
6,"CS(=O)(=O)CCNCc1ccc(-c2ccc3ncnc(Nc4ccc(OCc5cccc(F)c5)c(Cl)c4)c3c2)o1 [lapatinib] + Clc1ccc(Nc2nnc(Cc3ccncc3)c3ccccc23)cc1 [vatalanib] (first compound 0.8 µM, partner dose 2 µM)",82.8%

# Test system: WM451Lu
# Test: as above
# Conditions: library dose: low library concentration; 72 h
row,Structure (SMILES),cell count
1,"C=CCNC1=C2C[C@@H](C)C[C@H](OC)[C@H](O)[C@@H](C)/C=C(\C)[C@H](OC(N)=O)[C@@H](OC)/C=C\C=C(/C)C(=O)NC(=CC1=O)C2=O [Tanespimycin] + CC(C)CCN1c2nc(Nc3cc(F)c(O)c(F)c3)ncc2N(C)C(=O)C1C [BID1870] (first compound 0.002 µM, partner dose 0.2 µM)",95.1%
2,"CS(=O)(=O)CCNCc1ccc(-c2ccc3ncnc(Nc4ccc(OCc5cccc(F)c5)c(Cl)c4)c3c2)o1 [lapatinib] + Nc1nc(F)nc2c1ncn2[C@@H]1O[C@H](CO)[C@@H](O)[C@@H]1O [fludarabine] (first compound 0.8 µM, partner dose 0.2 µM)",69.9%
3,"CNC(=O)c1cc(Oc2ccc(NC(=O)Nc3ccc(Cl)c(C(F)(F)F)c3)cc2)ccn1 [sorafenib] + C#Cc1cccc(Nc2ncnc3cc(OCCOC)c(OCCOC)cc23)c1 [erlotinib] (first compound 0.4 µM, partner dose 0.8 µM)",112%
4,"CN1CCN(c2ccc3nc(-c4c(N)c5c(F)cccc5[nH]c4=O)[nH]c3c2)CC1 [Dovitinib] + O=C(O)c1ccc2c(c1)nc(Nc1cccc(Cl)c1)c1ccncc12 [CX4945] (first compound 0.1 µM, partner dose 0.4 µM)",91.9%
5,"CN1CCN(c2ccc3nc(-c4c(N)c5c(F)cccc5[nH]c4=O)[nH]c3c2)CC1 [Dovitinib] + O=C(Nc1ccccc1)c1cc([N+](=O)[O-])ccc1Cl [GW9662] (first compound 0.1 µM, partner dose 2 µM)",101%
6,"C[C@@H](Oc1cc(-c2cnn(C3CCNCC3)c2)cnc1N)c1c(Cl)ccc(F)c1Cl [Crizotinib] + NCC(=O)Nc1ccc(-n2nc(C(F)(F)F)cc2-c2ccc3c(ccc4ccccc43)c2)cc1 [OSU03012] (first compound 0.2 µM, partner dose 1 µM)",78.7%
7,"CN1CCN(c2ccc3nc(-c4c(N)c5c(F)cccc5[nH]c4=O)[nH]c3c2)CC1 [Dovitinib] + Cn1nnc2c(C(N)=O)ncn2c1=O [temozolomide] (first compound 0.1 µM, partner dose 2 µM)",111%
8,"CNC(=O)c1cc(Oc2ccc(NC(=O)Nc3ccc(Cl)c(C(F)(F)F)c3)cc2)ccn1 [sorafenib] + O=C(Nc1ccccc1)c1cc([N+](=O)[O-])ccc1Cl [GW9662] (first compound 0.4 µM, partner dose 2 µM)",99.5%
